Data taken from PubChem BioAssay.
This list was built around the results that the source calls inconclusive (neither active nor inactive); the mix of calls is not that of the screen. Active and inactive are the calls of the source.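 How the source made its calls: active means cell viability at or below a set limit in both duplicate runs, the limit being the all-compound median minus 4 SD (cut at about 23% in these data, passing the limit was not always enough); inconclusive means no clear call, values can overlap the other calls; inactive means the rest.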

Assay: viability of HCT116 without oncogenic beta-catenin – human colon tumor cells, pilot screen (AID 823);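 further: 0% = wells killed by 20 µM Hyamine and 100% = untreated DMSO cell wells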
Conditions: HCT116 beta-catenin knockout viability, CellTiter-Glo, 60 h; at 10 µM; active compounds read low
With `COc1ccc(-n2nnnc2S(=O)(=O)CC(=O)N2CCCCC2)cc1` the viability was active: 1.47%.
In the case of `CCCOc1ccc2ccccc2c1/C=N/n1c(C)nnc1-n1nc(C)cc1C`, the viability is reported as active: 18.6%.
With `Brc1cc(Br)c2ncnc(N3CCCCC3)c2c1` the viability was active: 15.9%.
For `CC(=O)Nc1ccc(S(=O)(=O)N2CCN(c3nc(NC4CCCC4)c4ccccc4n3)CC2)cc1`, the viability was active: 1.42%.
In the case of `COc1cc(C(=O)N2CCN(c3cccc(C)c3C)CC2)cc(OC)c1OC`, the viability is reported as inconclusive: 18.4%.
For `c1ccc(-n2ncc3c2ncn2c(C4CCCCC4)nnc32)cc1`, the viability was inactive: 96.1%.
In the case of `COc1cccc(C(=O)Nc2nnc(-c3ccc(Cl)cc3)o2)c1`, the viability is reported as inconclusive: 21.7%.
For `Cc1oc(-c2ccc(Cl)cc2)nc1CN1CCC(C(=O)N2CCc3ccccc3C2)CC1`, the viability was inconclusive: 14.8%.
With `CCN(CC)CCNC(=O)c1cc2c(-c3ccc(Cl)cc3)nn(C)c2s1` the viability was active: 2.18%.
In the case of `CN1CCN(CCCNC(=O)c2cc3c(-c4ccc(Cl)cc4)nn(C)c3s2)CC1`, the viability is reported as active: 2.18%.
With `CC1CCN(Cc2ccc(NC(=O)C3CCN(c4nnc(-n5cccc5)s4)CC3)cc2)CC1` the viability was inconclusive: 28.8%.
With `CC1(C)CC(N2CCN(c3ccccc3)CC2)=CC(=[N+]2CCCC2)C1` the viability was active: 18.1%.
In the case of `COc1ccc2c(c1)[nH]c1c(N3CCN(Cc4ccc5c(c4)OCO5)CC3)ncnc12`, the viability is reported as active: 11.9%.
With `CCCC(C)NC(=O)c1ccc(F)cc1` (centres undefined) the viability was inconclusive: 108%.
In the case of `O=C(c1ccco1)N1CCCC(c2nc(-c3ccc(S(=O)(=O)NCc4ccccc4)cc3)no2)C1` (centres undefined), the viability is reported as inconclusive: 35.5%.
In the case of `Cn1c(C(=O)NC2CCCCCC2)cc2c(=O)n(C)c3ccccc3c21`, the viability is reported as inconclusive: 28.5%.
In the case of `Nc1nc(N2CCOCC2)nc(N(c2ccccc2)c2ccccc2)n1`, the viability is reported as inactive: 107%.
In the case of `C=CCn1c(O)c(C2=c3ccccc3=NC2=O)sc1=Nc1ccc(O)cc1`, the viability is reported as active: 2.1%.
For `O=c1cc(-c2c(F)c(F)c(F)c(F)c2F)oc2c(F)c(F)c(F)c(F)c12`, the viability was active: 1.3%.
With `Cc1cccc(OCc2nnc(SCC(=O)NCCc3ccccc3)o2)c1` the viability was inactive: 98%.
With `COc1ccc(Nc2ccc3c(c2)=NC2(CCCCC2)[N+]=3[O-])cc1` the viability was active: 2.19%.
In the case of `COc1ccccc1N1CCN(CC(=O)Nc2cc(C)nn2-c2nc(C)cc(C)n2)CC1`, the viability is reported as active: 19.6%.
For `CC1=C(C(=O)OCc2ccc3c(c2)OCO3)C(c2ccccc2)NC(=O)N1` (centres undefined), the viability was inconclusive: 26.2%.
For `S=c1nc(-c2ccccc2)n(CCN2CCOCC2)c2c1CCCC2`, the viability was inactive: 92.6%.
